# Measured values published in PubChem BioAssay AID2107 (National Center for Advancing Translational Sciences (NCATS), 2009).
# Screen size: about 240,000 compounds; about 20 (0.008%) were called active. The shares of active, inactive and inconclusive entries below differ from those in the screen. The call rests on the fitted dose curve; in most records, active means well fitted inhibition curve with a large enough effect; inconclusive means small, poorly fitted or top-dose-only effect, or effect the other way; inactive means flat fitted curve, though single readings scatter. No potency is given beside an inconclusive call; the fits are too rough.
# Target: Alpha-galactosidase A (Homo sapiens) (UniProt P06280)
# Sequence of UniProt P06280 (P06280 whole entry, looked up): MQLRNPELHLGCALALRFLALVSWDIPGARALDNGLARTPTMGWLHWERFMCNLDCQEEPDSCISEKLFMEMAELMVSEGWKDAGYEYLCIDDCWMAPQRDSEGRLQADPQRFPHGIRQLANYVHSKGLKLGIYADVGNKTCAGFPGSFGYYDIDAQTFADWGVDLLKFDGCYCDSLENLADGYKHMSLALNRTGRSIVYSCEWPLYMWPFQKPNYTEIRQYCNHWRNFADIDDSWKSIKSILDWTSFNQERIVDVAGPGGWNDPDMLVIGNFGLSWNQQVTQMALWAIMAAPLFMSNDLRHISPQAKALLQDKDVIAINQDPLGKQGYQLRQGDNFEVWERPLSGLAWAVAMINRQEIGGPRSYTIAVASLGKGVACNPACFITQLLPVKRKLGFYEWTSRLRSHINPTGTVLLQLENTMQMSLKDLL
# Assay: qHTS Assay for Inhibitors and Activators of Human alpha-Galactosidase From Spleen Homogenate
# Details: 4MU-alpha-Gal fluorescence, 40 min; series mostly up to 80 µM
# Procedure, shortened: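 Spleen homogenate 1 ug + cpd (titration) + 4-MU-alpha-D-galactopyranoside 1 mM; 37C 40 min; 50 mM citrate/phosphate pH 5.0, 0.01% Tween-20; stop pH 10; fluorescence 365/440; AC50 via Hill.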
# Potency means the concentration at half of the fitted maximal effect; tags describe the fitted curve by direction and shape.
row,Structure (SMILES),Potency
1,CCCCCC(=O)Nc1cc(N(C)C)nc2ccccc12,"inconclusive [activator, partial curve]"
2,COCCn1c(=O)c(-c2cccc(F)c2)nc2cncnc21,"inconclusive [inhibitor, single point]"
3,Clc1ccc2nc3ccccn3c2c1,"inconclusive [activator, partial curve]"
4,COc1ccc(-c2cc(C(F)(F)F)c(C#N)c(=O)[nH]2)cc1,"inconclusive [activator, partial curve]"
5,O=Cc1ccc(N2CCCC2)o1,inactive
6,O=C(Nc1ncccn1)c1ccc([N+](=O)[O-])o1,"inconclusive [activator, partial curve]"
7,C=CCN(CC=C)c1nc2ccccc2nc1C(C#N)C(=O)OC(C)C (stereo unspecified),"inconclusive [activator, single point]"
8,CCN(CC)CCCNC(=O)CCC(=O)Nc1ccc2nc(N3CCCCC3)cc(C)c2c1,"inconclusive [activator, partial curve]"
9,Cc1ccc2c(c1)c1ncnc(N3CCC4(CC3)OCCO4)c1n2C,"inconclusive [activator, partial curve]"
10,Cc1cc(C)c2c(n1)nn1c(-n3ccnc3)cc(C)nc21,"inconclusive [activator, single point]"
11,Nc1c(C(=O)NCCc2ccccc2)sc2nc(N3CCOCC3)c3c(c12)CCCC3,"inconclusive [activator, partial curve]"
12,COc1cc2c3nnc(-c4ccc(F)cc4)c-3cn(Cc3cccc(F)c3)c2cc1OC,inactive
13,COc1ccc(C2C3=C(CCCC3=O)Nc3nc(SCc4ccc(C(=O)O)cc4)nn32)cc1OC (stereo unspecified),"inconclusive [activator, single point]"
14,COc1cc2nc(N(C)C)nc(N)c2cc1OC,"inconclusive [activator, partial curve]"
15,CN1C2C=C3C(C#N)=C(N)C(C#N)(C#N)[C@@H](c4cccc(F)c4)[C@@H]3C1CC2 (stereo partly specified),"inconclusive [activator, single point]"
16,[O-][n+]1onc2c1CCc1[nH]c(-c3ccccc3)nc1-2,inactive
17,Cn1nnnc1SCC(=O)N1c2ccccc2CCc2ccccc21,inactive
18,Nc1ccccc1-c1nc2ccccc2[nH]1,"inconclusive [activator, partial curve]"
19,O=C(COc1cccnc1[N+](=O)[O-])Nc1ccc(Cl)c(S(=O)(=O)N2CCOCC2)c1,inactive
20,O=C1NC(=Nc2ccc(Cl)cc2)SC1Cc1cc(Cl)ccc1Cl (stereo unspecified),"inconclusive [inhibitor, single point]"
21,Cc1ccc(-c2cc(C(F)F)n3ncc(C(=O)Nc4c(C)nn(Cc5c(Cl)cccc5Cl)c4C)c3n2)cc1,"inconclusive [activator, single point]"
22,O=C(CN1CCc2ccccc21)NC(=O)NCc1ccccc1,inactive
23,N#Cc1c(N)n(CCNC(=O)c2cccs2)c2nc3ccccc3nc12,"inconclusive [activator, partial curve]"
24,Cc1cc(NC(=O)CSc2nc3c(cc2C#N)CCCC3)no1,inactive

row,Structure (SMILES),Potency
1,COc1ccc(C2C3=C(CC(C)(C)CC3=O)N(C)C3=C2C(=O)CC(C)(C)C3)cc1,"inconclusive [activator, partial curve]"
2,COc1ccc(NC(=O)Nc2nnc(C(C)C)s2)cc1,"inconclusive [activator, single point]"
3,COc1ccc(-c2nnc(Nc3nc4c(OC)cccc4s3)o2)c(OC)c1,"inconclusive [activator, partial curve]"
4,N#Cc1ccccc1NC(=O)Nc1ccc(Cl)cc1,"inconclusive [activator, single point]"
5,CC(C)C(=O)N1CCN(c2ccccc2NC(=O)Cc2ccc(Cl)cc2)CC1,"inconclusive [inhibitor, single point]"
6,COc1ccc2oc(=O)c(C(=O)N3CCCC3)cc2c1,"inconclusive [activator, partial curve]"
7,Oc1ccccc1-c1nc2c3ccccc3c3ccccc3c2[nH]1,"inconclusive [activator, partial curve]"
8,Cc1nc2cc3ccccc3cc2c(=O)[nH]1,"inconclusive [activator, partial curve]"
9,COc1ncc2nc(-c3cccs3)c(=O)n(C)c2n1,"inconclusive [activator, single point]"
10,CCN(CC)c1ccc2c(C)c(CN3CCOCC3)c(=O)oc2c1,"inconclusive [activator, single point]"
11,COc1ccccc1N1CCN(CCn2c(=O)[nH]c3c([nH]c4ccccc43)c2=O)CC1,"inconclusive [activator, single point]"
12,Cn1c(=O)c2c(ncn2CCO)n(C)c1=O,inactive
13,C=CCn1c(N)c(C(=O)NCC2CCCO2)c2nc3ccccc3nc21 (stereo unspecified),"inconclusive [activator, partial curve]"
14,O=C1CC(N(O)c2ccccc2)C(=O)N1c1cc(Cl)cc(Cl)c1 (stereo unspecified),inactive
15,CC1=C(C(=O)Nc2ccccc2F)C(c2ccsc2)C2=C(CC(c3ccccc3)CC2=O)N1 (stereo unspecified),"inconclusive [activator, single point]"
16,CCOC(=O)C1=C(C)N=C2c3ccccc3C(=O)C2C1c1ccc(C)cc1 (stereo unspecified),"inconclusive [inhibitor, single point]"
17,O=[N+]([O-])c1ccc(N2CCCCC2)cc1N1CCOCC1,inactive
18,Cc1ccc(-c2csc3ncn(-n4c(C)ccc4C)c(=O)c23)o1,"inconclusive [inhibitor, single point]"
19,CCOC(=O)c1cc2c(=O)n3cccc(C)c3nc2n(Cc2ccco2)c1=NC(=O)c1cccnc1,"inconclusive [activator, partial curve]"
20,CCOc1cc(-c2conc2N)cc(OCC)c1OCC,inactive
21,CC(=O)NCCCNc1ccc([N+](=O)[O-])cc1,"inconclusive [inhibitor, partial curve]"
22,COc1ccccc1CCn1c(N)c(C#N)c2nc3ccccc3nc21,"inconclusive [activator, partial curve]"
23,COc1ccc(-c2nnc(SCC(=O)OC3CCCCC3)o2)cc1OC,"inconclusive [inhibitor, single point]"
24,COc1ccc2[nH]cc(CCNc3ccnc(-c4ccccc4C)n3)c2c1,active: 31.6 µM

row,Structure (SMILES),Potency
1,Cc1ccc(CNc2ccc(N3CCOCC3)cc2)s1,inactive
2,CN(C)c1ccc(C2CC(=O)C=C(Nc3ccccc3N)C2)cc1 (stereo unspecified),inactive
3,O=C(NCc1n[nH]c(=S)n1-c1ccccc1)c1ccc(S(=O)(=O)N2CCCCC2)cc1,inactive
4,COCCCn1c(-c2ccccc2Cl)n[nH]c1=S,"inconclusive [inhibitor, single point]"
5,CC(=O)N1CCC2(CC1)CC(=O)c1cc(OCC(=O)NCc3ccc(C)cc3)ccc1O2,"inconclusive [activator, single point]"
6,Cn1cnnc1SCC(=O)Nc1ccc(Cl)c(S(=O)(=O)N2CCOCC2)c1,inactive
7,COC(=O)C1=CN(CCCN2CCCC2=O)C=C(C(=O)OC)C1c1ccccc1C(F)(F)F,"inconclusive [activator, partial curve]"
8,Cc1ccc2c(c1)c1c3n2CCN(C(=O)Cn2c(-c4ccccc4)noc2=O)C3CCC1 (stereo unspecified),"inconclusive [inhibitor, single point]"
9,Cc1ccc(C)c(NC(=O)CS(=O)(=O)c2cn(C)c3ccccc23)c1,"inconclusive [inhibitor, single point]"
10,CCOC(=O)c1ccccc1NC(=O)CSc1nnc(C(C)C)n1CC,"inconclusive [inhibitor, single point]"
11,O=c1c(-c2nc3ccccc3s2)cccn1Cc1ccc(Cl)cc1,"inconclusive [activator, partial curve]"
12,COc1ccc(Cn2c(=O)[nH]c3cc(C(=O)NCCCN4CCCC4)ccc3c2=O)cc1,"inconclusive [activator, partial curve]"
13,N#Cc1c(C(F)(F)F)cc(-c2cccc(Cl)c2)[nH]c1=O,"inconclusive [activator, partial curve]"
14,CCC1CCCCN1CC(=O)Nc1cc(C)nn1-c1nc(C)cc(C)n1 (stereo unspecified),inactive
15,N[C@@H](Cn1cc(I)c(=O)n(Cc2ccc(C(=O)O)cc2)c1=O)C(=O)O,inactive
16,COc1ccc(CNc2ccnc(-c3cccc(NS(C)(=O)=O)c3)n2)c(OC)c1,"inconclusive [inhibitor, single point]"
17,COC(=O)N1CCC2(CC1)CCN(c1ccccc1)CC2,inactive
18,Cc1ccc2cc3cc(C(=O)N(CC(=O)NC4CCCC4)c4cccc(C)c4C)sc3nc2c1,inactive
19,CN(c1ccccc1)S(=O)(=O)c1ccc(C(=O)NCc2ccccn2)cc1,inactive
20,Cc1ncoc1C(=O)Nc1ccccc1C(N)=O,"inconclusive [inhibitor, single point]"
21,CCOC(=O)c1nnn(-c2nonc2N)c1CN1CCc2ccccc2C1,inactive
22,CC(C)CC(=O)OCc1cn(-c2ccccc2)nn1,"inconclusive [activator, single point]"
23,Cc1cc(O)c(C)c2c1CC[C@H]1[C@H](C)C(=O)O[C@H]21,inactive
